Structures are written as SMILES. ± gives the uncertainty stated by the source. The source holds more than one record for some entries. Only these are listed. An entry can have further records. Values that stand side by side are repeats in other runs, samples, wells, individuals or studies.

Drawing on the CheMixHub viscosity set, this text covers viscosity for one compound.

The conditions of this series: 298.15 K; 101.33 kPa.

Turning to `CC(Cl)(Cl)Cl`, the viscosity is recorded as 0.7917 ± 0.0077 mPa·s, 0.7956 ± 0.0077 mPa·s, 0.7923 ± 0.0077 mPa·s, 0.7912 ± 0.0077 mPa·s, 0.7918 ± 0.0077 mPa·s.
